Measurements published in the supplement of paper PMC12217912.
This is one part of the list. Sequences were assembled here from the parent chain. Inactive controls read about 0.05.

B1: TEV protease; numbered along this chain (parent)
chain: MGESLFKGPRDYNPISSSICHLTNESDGHTTSLYGIGFGPFIITNKHLFRRNNGTLVVQSLHGVFKVKDTTTLQQHLVDGRDMIIIRMPKDFPPFPQKLKFREPQREERICLVTTNFQTKSMSSMVSDTSCTFPSGDGIFWKHWIQTKDGQCGSPLVSTRDGFIVGIHSASNFTNTNNYFTSVPKNFMELLTNQEAQQWVSGWRLNADSVLWGGHKVFMVKPEEPFQPVKEATQL

Variants of: B1
Assay: raw area under fraction-flipped curve 0-4 h after induction (AUC4h, not background-subtracted), DNA-recorder readout of cleavage of the substrate (dimensionless); higher = more cleavage of the substrate by the protease variant
Conditions: temperature: 34 °C; time window: 0-4 h after rhamnose induction
Method: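 In vivo DNA recorder in E. coli TOP10(DE3) ΔrhaA at 34 °C. Each TEVp single-site mutant (parent TEVp 0) is paired with a single-site variant of the 7-mer TEVs (canonical ENLYFQ|S). The substrate sits between flexible linkers in a Bxb1-sfGFP-TEVs-SsrA fusion, so cleavage stabilises Bxb1 and speeds flipping of a recombination array, read by NGS. The value is the raw area under the fraction-flipped curve over 0-4 h after rhamnose induction (AUC4h), with ≥20 reads per time point. It is not background-subtracted; inactive controls average about 0.047.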
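Note: Bxb1 expression induced with 0.2% (w/v) L-rhamnose at OD600 near 0.5, cultures sampled hourly, flipped fraction per protease–substrate barcode pair counted by paired-end Illumina sequencing.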

| Variant | area with substrate ENAYFQS | area with substrate ENCYFQS | area with substrate ENDYFQS | area with substrate ENEYFQS | area with substrate ENFYFQS | area with substrate ENIYFQS | area with substrate ENQYFQS | area with substrate ENRYFQS | area with substrate ENSYFQS | area with substrate ENTYFQS | area with substrate ENVYFQS | area with substrate ENGYFQS | area with substrate ENMYFQS | area with substrate ENNYFQS | area with substrate ENYYFQS | area with substrate ENKYFQS | area with substrate ENHYFQS | area with substrate ENPYFQS | area with substrate ENWYFQS |
| --- | --- | --- | --- | --- | --- | --- | --- | --- | --- | --- | --- | --- | --- | --- | --- | --- | --- | --- | --- |
| K148Q | 0.0681 | 0.0662 | 0.0628 | 0.0702 | 0.0636 | 0.1 | 0.0565 | 0.0551 | 0.0498 | 0.0488 | 0.0629 |  |  |  |  |  |  |  |  |
| K148E | 0.0709 | 0.07 | 0.0546 | 0.0647 | 0.052 | 0.113 | 0.0643 | 0.0465 | 0.0533 | 0.0708 | 0.0733 | 0.0589 | 0.075 | 0.0551 | 0.0532 |  |  |  |  |
| K148R | 0.0572 |  | 0.072 | 0.0741 | 0.08 | 0.102 | 0.0513 |  | 0.0641 |  | 0.0605 | 0.0551 | 0.0712 | 0.0454 | 0.0657 | 0.0974 |  |  |  |
| S135R | 0.0669 | 0.0593 | 0.0563 | 0.0579 | 0.0615 | 0.0663 | 0.0542 | 0.063 | 0.0575 | 0.0602 | 0.0658 | 0.0728 | 0.0552 | 0.0572 | 0.0681 |  | 0.0436 | 0.0682 |  |
| C111M | 0.0322 | 0.0642 | 0.102 | 0.0687 | 0.0481 | 0.103 | 0.0709 | 0.0828 | 0.0673 | 0.0609 | 0.0752 | 0.0541 |  | 0.06 |  |  | 0.0613 | 0.0646 |  |
| C111S | 0.062 | 0.0628 | 0.0652 | 0.0663 | 0.108 |  | 0.0602 | 0.0635 | 0.0645 | 0.0598 | 0.0881 | 0.0566 | 0.0678 | 0.0709 | 0.0595 | 0.0492 | 0.0523 | 0.0453 | 0.0947 |
| G150V | 0.0464 | 0.0542 | 0.0598 | 0.0614 | 0.0495 | 0.0587 | 0.0559 | 0.0427 | 0.0551 | 0.0568 | 0.0613 | 0.068 | 0.0518 | 0.0559 |  | 0.0794 | 0.059 | 0.0492 | 0.0594 |
| G150H | 0.0696 | 0.0572 | 0.0681 | 0.0764 | 0.062 | 0.0649 | 0.057 | 0.0595 | 0.057 | 0.0548 | 0.0557 | 0.0606 |  | 0.0524 |  | 0.0693 | 0.0597 | 0.0688 | 0.0318 |
| E107Y | 0.0596 | 0.0629 | 0.0602 |  |  |  | 0.0532 |  | 0.0563 | 0.0578 |  |  |  |  |  | 0.0621 | 0.0642 |  |  |
| F140G | 0.0573 | 0.0695 | 0.046 | 0.0664 |  | 0.0631 | 0.0627 | 0.0518 | 0.0486 | 0.0593 | 0.0629 | 0.0671 | 0.0453 |  |  | 0.0768 | 0.0574 |  |  |
| F133W | 0.0688 | 0.0588 | 0.0481 | 0.066 |  | 0.106 | 0.0578 | 0.0571 | 0.0675 | 0.0625 | 0.0689 | 0.0609 | 0.0796 | 0.059 |  |  | 0.0636 |  | 0.0489 |
| F133K | 0.0587 | 0.0779 | 0.0776 | 0.052 | 0.0657 | 0.176 | 0.0711 | 0.0614 | 0.0608 | 0.0614 | 0.0667 | 0.0646 |  |  | 0.0693 |  |  |  |  |
| K142L | 0.0622 | 0.0793 | 0.0656 | 0.0618 | 0.0682 | 0.151 | 0.0556 | 0.0558 | 0.0481 | 0.0926 | 0.0872 | 0.0685 | 0.0898 | 0.0605 |  | 0.0613 | 0.0612 | 0.0603 |  |
| K142I | 0.0677 | 0.0658 | 0.0685 | 0.0604 |  | 0.0923 | 0.0594 | 0.0662 | 0.0795 |  | 0.0796 | 0.0678 | 0.0835 | 0.067 | 0.0594 | 0.054 | 0.0633 |  | 0.0645 |
| T147Q | 0.0675 |  | 0.0707 | 0.0574 | 0.0548 | 0.0718 | 0.061 | 0.0667 | 0.0614 |  | 0.0631 | 0.0657 | 0.0645 | 0.0614 |  | 0.0658 | 0.0624 | 0.0624 | 0.0573 |
| V113G | 0.0734 | 0.0737 | 0.0494 |  |  |  | 0.0512 | 0.0606 | 0.0573 | 0.0572 | 0.0491 | 0.0647 |  |  |  | 0.062 |  |  | 0.0446 |
| S123D | 0.0612 | 0.0546 | 0.063 | 0.0672 | 0.0675 | 0.108 | 0.0626 |  | 0.0433 | 0.069 | 0.0773 |  |  | 0.0614 |  | 0.0714 |  |  |  |
| E108A | 0.0495 | 0.104 | 0.054 | 0.054 | 0.0604 | 0.066 | 0.0536 | 0.0582 | 0.0589 | 0.0552 | 0.0658 | 0.0459 |  |  | 0.0553 | 0.0601 | 0.0675 |  |  |
| T114Y | 0.0759 | 0.074 |  | 0.0578 | 0.0617 | 0.0966 | 0.0615 |  | 0.0615 | 0.0599 | 0.0727 | 0.0721 |  |  | 0.0641 |  | 0.0728 |  |  |
| W141A | 0.0576 | 0.0508 |  | 0.0533 | 0.0555 |  | 0.0506 | 0.0612 | 0.0615 | 0.0569 |  | 0.052 |  | 0.0558 | 0.0628 |  | 0.0548 | 0.0667 |  |
| W141I | 0.0542 | 0.0567 |  | 0.0631 | 0.0538 |  | 0.0834 |  |  | 0.058 |  | 0.0561 |  |  |  | 0.048 | 0.0588 |  |  |
| W141P | 0.0607 | 0.0646 |  | 0.0552 | 0.0637 | 0.0483 | 0.0612 | 0.0576 | 0.0553 | 0.0444 | 0.086 | 0.0568 |  | 0.0397 |  | 0.0558 | 0.0629 | 0.0517 |  |
| Q146K | 0.085 | 0.0723 | 0.0681 | 0.0585 | 0.0625 |  | 0.0623 | 0.0529 | 0.0636 | 0.0446 | 0.0861 | 0.0384 | 0.0809 | 0.0519 |  | 0.0621 |  | 0.0432 |  |
| Q146M | 0.0721 | 0.0498 | 0.0641 | 0.0392 | 0.0651 |  | 0.066 | 0.0515 | 0.158 | 0.0661 | 0.0716 | 0.0464 |  | 0.0505 |  | 0.0646 | 0.0617 | 0.0313 |  |
